Substitutions are numbered along the chain they refer to. No constants are given. Whether binding was seen depends on the method and setting. Binding seen in cells or lysates may run through a third protein. Some entries that bind do so weakly or less than the wild type.
Tests used:
Assay in all cases: co-IP; HEK-293T cells co-transfected with equimolar tandem-epitope-tagged SUFU variant and GFP-GLI1; SUFU precipitated with anti-HA magnetic beads, 4 °C overnight; blots for GLI1, GFP and HA
[1] = molecular target: T1, SUFU-TAP 199X (human) (UniProt Q9UMX1)
T1 sequence: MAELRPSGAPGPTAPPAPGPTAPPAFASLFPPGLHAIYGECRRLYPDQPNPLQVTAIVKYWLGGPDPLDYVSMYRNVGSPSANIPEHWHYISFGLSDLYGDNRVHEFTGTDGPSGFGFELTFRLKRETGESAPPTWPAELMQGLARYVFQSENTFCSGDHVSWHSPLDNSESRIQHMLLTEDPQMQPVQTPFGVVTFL

Protein sequences, listed by entry. Tags and fused reporters are not part of them.
UniProt P08151: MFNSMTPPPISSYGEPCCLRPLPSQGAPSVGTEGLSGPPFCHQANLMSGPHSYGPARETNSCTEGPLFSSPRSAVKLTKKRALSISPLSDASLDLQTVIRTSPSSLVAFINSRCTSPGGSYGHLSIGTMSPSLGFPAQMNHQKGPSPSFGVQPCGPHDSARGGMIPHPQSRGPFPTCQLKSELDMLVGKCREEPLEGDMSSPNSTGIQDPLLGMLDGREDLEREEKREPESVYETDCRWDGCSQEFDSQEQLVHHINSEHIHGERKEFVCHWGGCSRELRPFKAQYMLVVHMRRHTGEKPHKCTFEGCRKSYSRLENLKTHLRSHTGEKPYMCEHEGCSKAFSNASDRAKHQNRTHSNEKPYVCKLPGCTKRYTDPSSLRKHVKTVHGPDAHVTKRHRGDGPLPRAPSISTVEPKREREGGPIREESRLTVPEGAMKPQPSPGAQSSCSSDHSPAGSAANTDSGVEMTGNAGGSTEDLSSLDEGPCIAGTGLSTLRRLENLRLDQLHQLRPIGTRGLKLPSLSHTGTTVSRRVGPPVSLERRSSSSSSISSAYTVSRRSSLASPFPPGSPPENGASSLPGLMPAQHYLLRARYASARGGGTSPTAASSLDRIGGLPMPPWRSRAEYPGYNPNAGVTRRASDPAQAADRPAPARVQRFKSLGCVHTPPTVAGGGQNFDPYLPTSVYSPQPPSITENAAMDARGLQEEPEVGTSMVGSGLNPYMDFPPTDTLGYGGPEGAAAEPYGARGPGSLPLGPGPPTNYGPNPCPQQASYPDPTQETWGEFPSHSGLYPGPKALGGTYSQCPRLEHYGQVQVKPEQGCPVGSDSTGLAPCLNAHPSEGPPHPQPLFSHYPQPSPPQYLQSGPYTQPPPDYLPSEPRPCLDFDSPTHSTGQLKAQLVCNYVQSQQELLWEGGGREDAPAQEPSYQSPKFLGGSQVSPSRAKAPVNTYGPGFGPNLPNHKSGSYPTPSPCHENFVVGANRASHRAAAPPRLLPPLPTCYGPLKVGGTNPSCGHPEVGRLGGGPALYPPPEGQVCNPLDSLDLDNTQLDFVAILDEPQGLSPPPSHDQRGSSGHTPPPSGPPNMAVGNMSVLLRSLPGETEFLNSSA

[2] = molecular target: T2, SUFU-TAP V478M (human) (UniProt Q9UMX1)
T2 sequence: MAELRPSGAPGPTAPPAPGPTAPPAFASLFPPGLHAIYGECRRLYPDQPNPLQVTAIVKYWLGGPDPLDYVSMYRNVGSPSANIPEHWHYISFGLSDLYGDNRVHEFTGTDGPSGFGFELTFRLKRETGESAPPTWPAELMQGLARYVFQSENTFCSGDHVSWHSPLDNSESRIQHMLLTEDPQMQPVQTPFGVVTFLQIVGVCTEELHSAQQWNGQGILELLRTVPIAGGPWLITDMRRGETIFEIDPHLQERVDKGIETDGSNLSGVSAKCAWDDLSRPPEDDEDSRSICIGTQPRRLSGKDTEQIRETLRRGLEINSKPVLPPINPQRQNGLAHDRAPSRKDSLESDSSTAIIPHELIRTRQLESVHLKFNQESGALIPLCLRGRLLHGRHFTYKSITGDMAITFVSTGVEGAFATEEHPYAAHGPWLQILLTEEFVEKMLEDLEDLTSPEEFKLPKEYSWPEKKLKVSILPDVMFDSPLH

[3] = molecular target: T3, SUFU-TAP G158R (human) (UniProt Q9UMX1)
T3 sequence: T2 sequence with G158R, M478V

[4] = molecular target: T4, SUFU-TAP L444S (human) (UniProt Q9UMX1)
T4 sequence: T2 sequence with L444S, M478V

[5] = molecular target: T5, SUFU-TAP P191S (human) (UniProt Q9UMX1)
T5 sequence: T2 sequence with P191S, M478V

[6] = molecular target: T6, SUFU-TAP A379D (human) (UniProt Q9UMX1)
T6 sequence: T2 sequence with A379D, M478V

[7] = molecular target: T7, SUFU-TAP 146X (human) (UniProt Q9UMX1)
T7 sequence: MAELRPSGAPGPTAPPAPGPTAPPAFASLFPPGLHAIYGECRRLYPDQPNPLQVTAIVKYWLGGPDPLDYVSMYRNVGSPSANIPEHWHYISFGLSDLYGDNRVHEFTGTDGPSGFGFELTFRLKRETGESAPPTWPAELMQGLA

[8] = molecular target: T8, SUFU-TAP 464X (human) (UniProt Q9UMX1)
T8 sequence: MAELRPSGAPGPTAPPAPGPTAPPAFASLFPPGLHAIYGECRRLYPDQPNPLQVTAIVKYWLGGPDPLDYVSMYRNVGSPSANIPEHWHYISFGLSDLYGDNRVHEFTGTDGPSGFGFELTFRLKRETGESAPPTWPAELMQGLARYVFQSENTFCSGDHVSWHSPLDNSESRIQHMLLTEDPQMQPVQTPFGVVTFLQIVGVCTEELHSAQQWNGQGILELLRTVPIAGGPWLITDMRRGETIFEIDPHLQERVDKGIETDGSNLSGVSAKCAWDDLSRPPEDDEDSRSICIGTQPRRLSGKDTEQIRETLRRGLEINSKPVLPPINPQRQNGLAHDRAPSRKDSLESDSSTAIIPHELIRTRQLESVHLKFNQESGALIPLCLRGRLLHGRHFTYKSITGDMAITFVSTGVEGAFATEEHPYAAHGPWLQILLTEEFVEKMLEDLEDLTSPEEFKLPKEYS

[9] = molecular target: T9, SUFU-TAP wild type (human) (UniProt Q9UMX1)
T9 sequence: T2 sequence with M478V

binding [1]: no binding
binding [2]: binds
binding [3]: binds
binding [4]: binds
binding [5]: binds
binding [6]: binds
binding [7]: no binding
binding [8]: no binding
binding [9]: binds
Substance: GFP-GLI1 (from UniProt P08151 1-1106)

— PMC5193403
